# Measured values reported in the supplement of paper PMC11417369.
# The list shows a part of the results.
# Tested on: PfAP2-HC AP2 domain (GST-tagged)
# Assay: gcPBM binding intensity (ln(normalized median fluorescence intensity)); higher = stronger DNA binding
# Summary of the method: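 An Agilent 4 × 180k array of primer-extended double-stranded 36-bp intergenic genomic probes, with negative controls, was incubated for 1 h with GST-tagged P. falciparum DNA-binding domains expressed in E. coli. Alexa488 anti-GST antibody detected bound protein, scanned at 488 nm. Binding intensity is the highest Masliner-normalised natural-log median intensity across replicate spots of either probe orientation.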
row,Sequence,gcPBM binding intensity (ln)
1,TGTAATGTTTACAACACACAAATTAGAAATACAAAA [CACACA_site6924],9.79
2,ACATATTTAAAAACATGTACAAATATATTTATAATT [XGTACX_site661],9.55
3,AAGGAAGATATATACACACATACAAATATATATATA [CACACA_site2181],9.97
4,TTGTGTTTTATTATTTTATTATTACTATTATAATGT [GTGCAC_negctrl_site484],9.87
5,ATAAAACATAAATACATACACACATAATATATATTA [CACACA_site110],9.99
6,TAAAAATGGGTATGTACACACTTTATTTTTAATACA [CACACA_site5404],9.72
7,TATAAACATAAATATACACACAAACATATATGTATT [CACACA_site8324],10
8,CGTTTCCCCAATGGTTGTACAATATATATATATATA [XGTACX_site8641],9.7
9,AGACATATAATATATACACACATATATATATATATA [CACACA_site1066],9.74
10,TTATTTATAATGTTGTGTACATATATGAATATACCA [XGTACX_site3111],9.57
11,AAGAAAAAATAAAGCACACAAATATTTTAAAAACAC [CACACA_site3325],9.96
12,TTTTTTCAATTGGAAATTATTTTACAATGAAGGGTA [XGTACX_negctrl_site469],9.22
13,GATATATATACATGTGTGCACCATGCAACTTGTTTT,10.2
14,TATTTTACGTATTGTTGTACTTGAAACAAATATACA [XGTACX_site8778],9.54
15,ATATTGGAGCACAACACACACAAGTATATATATGGA [CACACA_site1546],10.1
16,AAATAGCCAAAAATCATGCACACCTAAAAAAAAAAA [CACACA_site2572],9.77
17,TATATATATATATATTGTACATATATTATTATATAT [XGTACX_site7447],9.59
18,AATTCTCTTAATAAATAAACACAAATAAATAATAAA [GTGCAC_negctrl_site499],9.51
19,CACATACAGACATACACACACATATATATTAATATA [CACACA_site546],10.2
20,CATACATACAAACACACACACACACCGATATATATA [CACACA_site8952],10.7
21,ATCAACATCTAACATTGTACATGTGATGTGTAAAAG [XGTACX_site547],9.78
22,ATATTTGCCCAAGATAGTACATATATATATATATAT [XGTACX_site7756],9.8

row,Sequence,gcPBM binding intensity (ln)
1,TATATAATAAAAAAAAGTACTTGGACAATATTATTT [XGTACX_site2802],9.63
2,ATCAAAATATTTATATGTACATATTAAAAATATAGA [XGTACX_site725],9.63
3,TTAATTTACATGAACTGTACATAACATTTTTTTAAA [XGTACX_site4672],9.34
4,TCAGTAATACTTGAATGTACTTATATTGTTTGTTTG [XGTACX_site6449],9.82
5,CCTATATTAAAACAAGCACACAATCGCATAATATCC [CACACA_site9052],10.2
6,ATTATATATCCCTATTCACACATGTATTATATAAAT [CACACA_site5486],9.89
7,TAATAAAGTGAATAATGTACATTTTATTTATTATAT [XGTACX_site6614],9.64
8,GAAAAATTAAAAATAACACACACATATATATATTTA [CACACA_site8896],10.3
9,ATTTATTTTATATGTTGTACAAACATTTTAAAACAT [XGTACX_site6919],9.51
10,TCTTTTTCTTGACGAGTGCAAAAATTGTGTTTGAAA,9.44
11,ATAAATAAATAAATAAATAAATAAATAAATATATAT [CACACA_negctrl_site1728],9.74
12,CTAATATCTGTATGCACACACAATAAATACATATTT [CACACA_site5797],9.97
13,AATGCCTTGTTGAGGTGTACTGAATGTTATTTTAAT [XGTACX_site3255],9.65
14,TTTTTTTAAAGAATTATCATAAAATGATTGCATCAT [XGTACX_negctrl_site141],9.34
15,TTAACATATTTGTTAGTGCATTTTGATATTACACAT [GTGCAC_site9978],9.81
16,AAAAAAATTAAATGTACACACACCTTAAACAATGTC [CACACA_site1855],10.1
17,CAAAAACGGAAGTGGTGTACCGATATTATATAAACA [XGTACX_site4962],9.77
18,GGAGAATAGTGGAAAACACACACGTTTGAGATATGG [CACACA_site1168],9.91
19,TTTTTTTTTTTTACCTGTACATGTCAGCAAACTTTT [XGTACX_site1171],9.73
20,AACATTATAAGACACACACACACATATATATATATA [CACACA_site8259],10.8
21,AGGTAGTTCTGTATCACACACATATATATATATATA [CACACA_site2214],10.1
22,ACTCTTAAAATGTATTGTACATAATTTTTACAAGGG [XGTACX_site6611],9.5

row,Sequence,gcPBM binding intensity (ln)
1,AAAAAAAATATATAAACACACATATTTATATACTCA [CACACA_site4984],9.73
2,ACATATAATAAAAAATGTACACACATAAGAAAATTT [XGTACX_site6153],10.3
3,ACTATAAATATATAAATATATATATATATATATATA [GTGCAC_negctrl_site65],9.4
4,TTTCCATTATGATATAGTACATAAATATATGTAATA [XGTACX_site6992],9.33
5,TTGTGTGTATGTATACATATATATATTGAGACGAAT [TGCATGCA_negctrl_site382],10
6,TATGTCAATTTTCATACATGCGCATAATCTTTATTT [TGCATGCA_site807],10
7,ATAAATAAGATACGTACACACATATACAAAATATAC [CACACA_site3661],9.98
8,TAAATACACTGTAGCGCACACGGCCAAAAAAAAAAA [CACACA_site1818],9.91
9,TTATTATCCTATATTTCTTTTCCTTCTTCAAAATTA [CACACA_negctrl_site1314],9.45
10,TACTATCTATACAATACACACAAAAAAAAAAAAATA [CACACA_site3981],10.2
11,TAATATCATTTATATTGTACTATAACAAAATCTATA [XGTACX_site7700],9.59
12,AATTGTAAATTGGGCACTTATAAAAATGAACAAATA [CACACA_negctrl_site1583],9.71
13,TCATAAAGAACAAAGTGTACCTATATATTACATACA [XGTACX_site7595],9.59
14,TATAAAACCCTACTGTTTCTTCTTTATTGATATATT [TGCATGCA_negctrl_site285],9.69
15,AAAGTTTTTATACATACACACCTATAAATTAAGTGC [CACACA_site7198],9.62
16,GAAAGAATAAAATAAACATGCAAATAAAACATAAAA [TGCATGCA_site471],9.82
17,TTTTCAATATATAGAGCATGCGCATCCACAAATATG [TGCATGCA_site380],9.51
18,AATGGAAAATTATTAACACACACATATAAATATATA [CACACA_site7899],10.1
19,TGCCAATTTTTAAAAACATGCATTATATAGAATAAA [TGCATGCA_site872],9.24
20,ATTAAAAGGGGGTTTACATGTGTGTGTGTAATATGG [TGCATGCA_negctrl_site293],10.6
21,TACAACAATTTTTGCACACACCAAAACATAAAATAA [CACACA_site4964],9.96
22,ATATTTCATCTAGCTACACACATATAATAAATTATT [CACACA_site4094],9.92

row,Sequence,gcPBM binding intensity (ln)
1,AATAATCATTTTCATAGTACGTATGATTAGAAAAAA [XGTACX_site2589],9.6
2,CAAAATATTTTTATAACACACATATTTATAACGTGC [CACACA_site6659],9.65
3,TTTTGATTGTTATTCGTATATTATTTTATGATTATA [CACACA_negctrl_site1593],9.69
4,TTATACATTTGTAAATAAATAGAACTGTATTTTTTT [TGCATGCA_negctrl_site397],9.39
5,TATATACCGATATATACACACAAATACATAAGCTTC [CACACA_site6760],9.82
6,AATATAAACAGACACACACACATATAGATTTATATT [CACACA_site7382],10.4
7,GGATAGATAATAGGGGGTACAAATATACATACATAT [XGTACX_site5089],9.99
8,GAAAATAGAAAAAGCACACATATATTTTGGAATGTA [CACACA_site551],9.79
9,TTTTAATGAAAACACACACACACATATATATATATA [CACACA_site5295],11.1
10,CTAAATATATAAAAAAGTACAAAATAAATAATAATT [XGTACX_site2442],9.76
11,TATATATTATGACCACCACACACCTATACACATAAC [CACACA_site8773],10.7
12,TATTTCTGATTATTTTGTACACATTATATATAATGC [XGTACX_site6990],9.7
13,TAATAAGTACCTTTTGCATGTGGCACGCTTTTTTTT [TGCATGCA_site573],9.74
14,TATTATATAACAAAAAGTACTTATAAGAAATATATA [XGTACX_site5467],9.66
15,AAATGAATTATATAATATATATAAATAAATAAATAA [CACACA_negctrl_site359],9.72
16,AAAAGTATATATTCAGTGCATAGTCTTTAAATATAA [GTGCAC_site9522],9.69
17,ATAAGCATCTGGATATGTACTTATTCCTTTAAAGAT [XGTACX_site6225],9.58
18,TATATATAACATTGTACACACAAAGAAATAATATTA [CACACA_site3035],9.92
19,ATAAAAAAGCAACATCATATGTTTTTATAGAGTATT [CACACA_negctrl_site745],9.58
20,AACAAGTTGCATGGTGCACACATGTATTTATATCTA [CACACA_site5414],10
21,TATTAAAAATATTATGTACACACATTTTAGATATTT [CACACA_site8549],9.77
22,AAATTAATGAAATATACACACATATATAAATATATA [CACACA_site4378],9.86
